# Data reported in the supplement of paper PMC7826260.
# This is one part of the list. One pool of 16,384 single-stranded DNAs met each Rep nickase domain in vitro (1 h at 37 °C, 3 µM enzyme); the outer parts of the 90-letter strands are left off. The score is log2 (uncut reads / reads without enzyme); strong cutting gives strongly negative numbers. There is no active / inactive call. Shares of all reads are compared; uncut strands gain when others are lost, and binding without cutting may add a little.
# Experiments:
# Assay in all cases: uncleaved DNA left, log2 of reads against the no-enzyme library (log2 ratio); higher = less cleavage (more negative = more Rep cleavage of the k-mer); sequences stand for … in CTCGTCCG…ACCGGAGA
# [1] = tested on: T1, Rep nickase domain of Muscovy duck circovirus
# T1 sequence (residues 1-111 of Rep, tag left off): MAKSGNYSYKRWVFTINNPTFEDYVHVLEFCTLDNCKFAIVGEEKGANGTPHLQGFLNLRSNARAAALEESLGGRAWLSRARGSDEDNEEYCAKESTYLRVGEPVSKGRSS
# Description: (§1)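 A pool of 90-nt single-stranded DNAs with seven random bases just before the constant AC of the nick site (name = the seven bases) was cut by 3 µM recombinant His6-SUMO-tagged Rep nickase domain (300 nM DNA, 50 mM HEPES pH 8.0, 50 mM NaCl, 1 mM MnCl2, 1 h, 37 °C, three replicates). Uncut DNA was amplified and sequenced.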
# [2] = tested on: T2, Rep nickase domain of banana bunchy top virus
# T2 sequence (residues 1-94 of Rep, tag left off): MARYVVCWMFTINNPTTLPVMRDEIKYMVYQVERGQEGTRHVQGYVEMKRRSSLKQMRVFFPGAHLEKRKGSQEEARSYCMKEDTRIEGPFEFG
# Description: as §1
# [3] = tested on: T3, Rep nickase domain of cabbage leaf curl virus
# T3 sequence (residues 1-116 of Rep, tag left off): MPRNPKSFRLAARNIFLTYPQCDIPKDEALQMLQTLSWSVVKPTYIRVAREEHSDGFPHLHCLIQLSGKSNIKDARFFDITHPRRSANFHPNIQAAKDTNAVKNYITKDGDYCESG
# Description: as §1
# [4] = tested on: T4, Rep nickase domain of chickpea chlorotic dwarf virus
# T4 sequence (residues 1-124 of Rep, tag left off): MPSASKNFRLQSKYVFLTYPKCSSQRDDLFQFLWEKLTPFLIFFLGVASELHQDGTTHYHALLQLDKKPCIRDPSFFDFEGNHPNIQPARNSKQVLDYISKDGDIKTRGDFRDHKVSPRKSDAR
# Description: as §1
# [5] = tested on: T5, Rep nickase domain of faba bean necrotic yellows virus
# T5 sequence (residues 1-98 of Rep, tag left off): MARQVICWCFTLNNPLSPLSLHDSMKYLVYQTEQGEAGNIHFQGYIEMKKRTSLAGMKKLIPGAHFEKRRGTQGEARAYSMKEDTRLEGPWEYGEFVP
# Description: as §1
# [6] = tested on: T6, Rep nickase domain of maize striate mosaic virus
# T6 sequence (residues 1-117 of Rep, tag left off): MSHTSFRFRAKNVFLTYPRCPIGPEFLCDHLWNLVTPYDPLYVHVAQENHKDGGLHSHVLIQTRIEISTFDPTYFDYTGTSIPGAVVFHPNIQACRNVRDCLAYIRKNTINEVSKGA
# Description: as §1
# [7] = tested on: T7, Rep nickase domain of porcine circovirus 2
# T7 sequence (residues 2-116 of Rep, tag left off): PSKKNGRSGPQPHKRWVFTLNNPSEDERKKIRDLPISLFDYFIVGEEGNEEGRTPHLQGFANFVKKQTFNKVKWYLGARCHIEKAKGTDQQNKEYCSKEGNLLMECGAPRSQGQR
# Description: as §1
# [8] = tested on: T8, Rep nickase domain of tomato golden mosaic virus
# T8 sequence (residues 1-124 of Rep, tag left off): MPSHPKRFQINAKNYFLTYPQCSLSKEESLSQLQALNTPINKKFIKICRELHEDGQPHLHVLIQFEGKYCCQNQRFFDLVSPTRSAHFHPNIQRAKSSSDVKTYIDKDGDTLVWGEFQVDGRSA
# Description: as §1
# [9] = tested on: T9, Rep nickase domain of tomato yellow leaf curl virus
# T9 sequence (residues 1-136 of Rep, tag left off): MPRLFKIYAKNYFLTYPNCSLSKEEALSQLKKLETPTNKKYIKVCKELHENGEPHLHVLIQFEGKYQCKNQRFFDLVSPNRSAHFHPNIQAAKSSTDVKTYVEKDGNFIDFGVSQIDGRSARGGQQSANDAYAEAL
# Description: as §1
# [10] = tested on: T10, Rep nickase domain of wheat dwarf virus
# T10 sequence (residues 1-137 of Rep, tag left off): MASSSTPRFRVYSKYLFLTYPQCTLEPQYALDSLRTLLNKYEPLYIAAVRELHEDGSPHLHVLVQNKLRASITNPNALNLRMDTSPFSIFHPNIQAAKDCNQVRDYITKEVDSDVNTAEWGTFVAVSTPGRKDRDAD
# Description: as §1
Sequence,uncleaved DNA left (log2) [1],uncleaved DNA left (log2) [2],uncleaved DNA left (log2) [3],uncleaved DNA left (log2) [4],uncleaved DNA left (log2) [5],uncleaved DNA left (log2) [6],uncleaved DNA left (log2) [7],uncleaved DNA left (log2) [8],uncleaved DNA left (log2) [9],uncleaved DNA left (log2) [10]
AAACAGT,-0.0318,-0.0661,-0.57,-2.17,-0.177,-0.94,-0.127,-0.0903,-0.075,-0.0781
CAGACTA,0.11,0.0355,0.133,-0.407,0.102,0.947,-0.155,0.158,0.18,0.0766
CTTGTGC,0.12,-0.161,-0.738,-0.614,0.0925,-1.03,0.108,-0.105,0.0844,-0.0329
TCGGGTT,-0.11,-0.112,0.153,0.325,-0.0368,1.32,0.0282,-0.0172,-0.0903,-0.0844
CTAACTT,0.0158,-0.0962,-0.217,-2.54,0.063,-0.523,-0.345,0.0462,-0.0295,-0.0328
TTCAGAC,0.0462,0.0193,0.334,0.374,-0.0957,0.143,0.08,-0.0274,0.0599,-0.00519
CTTTTTT,-2.97,-0.631,-0.205,-2.44,-0.19,-0.632,-3.35,-0.0438,0.0595,-0.0979
AGATCGG,0.0975,0.198,0.503,1.34,-0.0842,1.59,0.201,0.196,0.00787,0.119
AGCCAGT,-0.105,-0.0335,-0.133,0.351,-0.0394,0.232,-0.0964,-0.0367,0.0708,-0.032
GCGGCTG,-0.0872,0.0656,0.0793,0.647,-0.0505,1.77,-0.0373,-0.02,-0.0117,0.0888
CTGAGAG,0.0589,0.0379,-0.573,-0.291,0.205,-0.936,0.236,0.033,0.124,-0.0879
TCGGGTA,0.04,-0.0999,0.447,0.451,0.0394,1.01,0.0711,0.0288,0.171,0.00195
AGCCTTG,-0.218,-0.1,-0.121,0.118,-0.104,0.995,-0.0815,-0.133,-0.0565,-0.122
TAATATT,-4.3,-4.34,-5.48,-2.62,-3.88,-4.85,-4.76,-4.87,-4.04,-5.51
GGAAGAT,0.0986,0.145,0.883,1.95,0.134,2.18,0.185,0.187,0.0677,0.287
AGAAGCT,0.0233,0.0526,0.13,0.472,-0.0836,0.441,0.0635,0.0709,-0.0383,0.111
TCCTATC,0.185,-0.0684,0.264,-0.0108,0.0951,-0.446,0.104,-0.0238,0.152,0.241
GTCATCC,0.0214,0.0753,0.24,0.887,-0.0931,1.51,0.0352,-0.00405,0.0786,0.0978
CTATGTG,-0.0272,0.0337,-0.773,-0.082,0.198,-1.03,0.189,0.143,0.0757,-0.2
TTACGGC,0.0758,0.015,0.268,-0.33,0.1,0.00645,0.125,0.0265,0.0312,-0.0347
ACCTGGC,-0.00112,0.0165,-0.448,-0.428,0.0165,-1.05,0.137,0.0191,0.0876,-0.09
GCGCAAC,-0.131,-0.137,-0.0386,0.0118,-0.154,0.0862,-0.0451,-0.0782,-0.0816,-0.115
AATCCGC,-0.0948,-0.125,-0.615,-0.658,-0.0209,-1.18,-0.0944,-0.243,-0.14,-0.229
GAGTGAG,-0.0917,-0.176,-0.539,-0.255,0.0498,-0.583,0.0287,0.0032,0.0225,0.0299
CGCACGC,-0.0107,-0.025,-0.0777,0.0226,-0.0133,-0.225,-0.0982,-0.137,-0.108,-0.0761
ATTGGCC,0.0795,0.0178,0.0321,0.483,-0.0818,0.548,0.135,0.146,-0.0125,-0.0586
CGGTACG,-0.0982,-0.17,-0.729,-0.405,-0.183,-0.846,0.0247,-0.178,-0.113,-0.283
GACGGAA,0.157,0.0367,0.404,0.958,0.0933,1.33,0.118,0.0782,-0.0351,0.106
ACGTGTA,0.0794,-0.00781,-0.238,-0.691,-0.0519,-0.465,-0.298,0.0585,-0.0314,-0.12
CGGCTTC,-0.06,-0.078,0.00412,0.244,-0.0608,0.536,0.0154,-0.216,-0.0272,-0.0364
